# This is one part of the list. One pool of 16,384 single-stranded DNAs met each Rep nickase domain in vitro for 1 h at 37 °C with 3 µM enzyme; only the middle of the 90-letter strands is printed. Numbers give uncut DNA relative to the enzyme-free pool, as log2; uncut sequences lie near 0, cut ones below; no hit call is given. Counts are relative to all reads; where an enzyme cuts many sequences, the uncut ones exceed 0.
# Columns and labels:
# Test in all cases: uncleaved DNA left, log2 of reads against the no-enzyme library (log2 ratio); higher = less cleavage (more negative = more Rep cleavage of the k-mer); sequences stand for … in CTCGTCCG…ACCGGAGA
# [1] = system: T1, Rep nickase domain of Muscovy duck circovirus
# T1 sequence (protein, residues 1-111, tag omitted): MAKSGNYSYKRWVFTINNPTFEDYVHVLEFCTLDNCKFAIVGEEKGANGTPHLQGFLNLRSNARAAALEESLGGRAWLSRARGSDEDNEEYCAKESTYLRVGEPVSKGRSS
# Protocol: (§1)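 A pool of 90-nt single-stranded DNAs with seven random bases just before the constant AC of the nick site (name = the seven bases) was cut by 3 µM recombinant His6-SUMO-tagged Rep nickase domain (300 nM DNA, 50 mM HEPES pH 8.0, 50 mM NaCl, 1 mM MnCl2, 1 h, 37 °C, three replicates). Uncut DNA was amplified and sequenced.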
# [2] = system: T2, Rep nickase domain of banana bunchy top virus
# T2 sequence (protein, residues 1-94, tag omitted): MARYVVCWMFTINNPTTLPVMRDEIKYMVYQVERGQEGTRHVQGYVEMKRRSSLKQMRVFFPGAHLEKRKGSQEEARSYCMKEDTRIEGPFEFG
# Protocol: as §1
# [3] = system: T3, Rep nickase domain of cabbage leaf curl virus
# T3 sequence (protein, residues 1-116, tag omitted): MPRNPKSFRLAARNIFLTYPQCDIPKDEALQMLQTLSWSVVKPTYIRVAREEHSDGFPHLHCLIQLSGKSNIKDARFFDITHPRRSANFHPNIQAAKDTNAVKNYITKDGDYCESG
# Protocol: as §1
# [4] = system: T4, Rep nickase domain of chickpea chlorotic dwarf virus
# T4 sequence (protein, residues 1-124, tag omitted): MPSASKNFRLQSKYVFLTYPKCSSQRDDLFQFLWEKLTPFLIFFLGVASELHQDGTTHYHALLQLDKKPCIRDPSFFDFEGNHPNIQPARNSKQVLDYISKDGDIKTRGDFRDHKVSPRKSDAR
# Protocol: as §1
# [5] = system: T5, Rep nickase domain of faba bean necrotic yellows virus
# T5 sequence (protein, residues 1-98, tag omitted): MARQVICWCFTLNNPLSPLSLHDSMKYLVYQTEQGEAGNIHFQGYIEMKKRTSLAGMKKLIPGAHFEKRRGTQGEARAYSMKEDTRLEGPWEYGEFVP
# Protocol: as §1
# [6] = system: T6, Rep nickase domain of maize striate mosaic virus
# T6 sequence (protein, residues 1-117, tag omitted): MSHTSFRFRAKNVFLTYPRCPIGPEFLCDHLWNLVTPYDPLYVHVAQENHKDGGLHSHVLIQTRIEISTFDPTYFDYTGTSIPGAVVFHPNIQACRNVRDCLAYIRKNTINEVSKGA
# Protocol: as §1
# [7] = system: T7, Rep nickase domain of porcine circovirus 2
# T7 sequence (protein, residues 2-116, tag omitted): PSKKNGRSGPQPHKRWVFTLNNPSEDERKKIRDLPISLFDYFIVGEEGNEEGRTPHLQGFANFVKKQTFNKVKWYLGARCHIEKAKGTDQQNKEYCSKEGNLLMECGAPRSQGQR
# Protocol: as §1
# [8] = system: T8, Rep nickase domain of tomato golden mosaic virus
# T8 sequence (protein, residues 1-124, tag omitted): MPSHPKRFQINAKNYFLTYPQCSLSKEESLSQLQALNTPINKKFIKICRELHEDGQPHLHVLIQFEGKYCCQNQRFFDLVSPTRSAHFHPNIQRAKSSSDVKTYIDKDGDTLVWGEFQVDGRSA
# Protocol: as §1
# [9] = system: T9, Rep nickase domain of tomato yellow leaf curl virus
# T9 sequence (protein, residues 1-136, tag omitted): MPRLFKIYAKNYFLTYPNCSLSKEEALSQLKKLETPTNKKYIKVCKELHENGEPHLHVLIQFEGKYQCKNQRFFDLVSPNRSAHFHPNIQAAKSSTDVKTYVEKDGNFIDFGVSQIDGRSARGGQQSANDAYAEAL
# Protocol: as §1
# [10] = system: T10, Rep nickase domain of wheat dwarf virus
# T10 sequence (protein, residues 1-137, tag omitted): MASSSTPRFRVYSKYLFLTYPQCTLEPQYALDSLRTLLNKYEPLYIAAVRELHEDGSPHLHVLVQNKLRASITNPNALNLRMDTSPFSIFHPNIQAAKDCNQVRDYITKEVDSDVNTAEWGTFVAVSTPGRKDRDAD
# Protocol: as §1
Sequence,uncleaved DNA left (log2) [1],uncleaved DNA left (log2) [2],uncleaved DNA left (log2) [3],uncleaved DNA left (log2) [4],uncleaved DNA left (log2) [5],uncleaved DNA left (log2) [6],uncleaved DNA left (log2) [7],uncleaved DNA left (log2) [8],uncleaved DNA left (log2) [9],uncleaved DNA left (log2) [10]
ACGCCGC,-0.103,-0.0354,-0.384,-0.655,-0.0882,-1.06,0.0266,-0.113,-0.0331,-0.184
TGGCCTA,-0.0642,0.0366,0.381,0.236,0.00726,0.549,-0.0357,-0.0721,0.139,0.0522
AAGGTCC,-0.12,-0.051,-0.0306,0.521,-0.168,0.34,-0.0114,-0.0968,-0.216,-0.0586
CTGCGCG,0.142,-0.105,-0.661,0.0299,0.0666,-0.845,0.187,0.0107,0.0398,-0.00873
TCTGTCT,0.0664,-0.0351,-0.0731,-1.57,0.0497,-0.68,-0.115,-0.00909,-0.0547,-0.139
TTGAACA,-0.0794,-0.0138,0.147,-0.959,-0.13,0.333,-0.149,-0.0865,0.0384,-0.0678
AGCTTCG,-0.0549,0.0103,-0.703,-0.491,-0.0977,-1.09,0.125,-0.0518,0.0974,-0.0394
ACGAGCC,0.0601,0.0719,-0.192,0.153,0.0339,-0.681,-0.233,0.0865,0.0071,0.0192
GTCTATA,0.0752,0.0664,0.316,0.828,0.0311,1.86,0.0576,0.0797,0.0492,0.0893
CTAGCTT,-0.0527,-0.0596,-0.138,-1.61,-0.127,-0.141,-0.28,-0.131,-0.159,-0.0381
GCACAGT,0.0663,-0.0456,-0.0294,0.123,0.00431,-0.168,0.0174,-0.0711,0.0498,0.0573
TGATAGC,0.0258,-0.0937,-0.29,-0.378,-0.0551,-0.942,0.0408,-0.101,-0.0807,-0.0648
TGTCCAA,0.000199,0.0672,0.29,0.426,-0.0066,0.497,0.111,0.0356,0.172,0.177
GGCTGAT,-0.142,-0.0321,0.346,1.14,-0.029,1.51,-0.663,-0.0325,-0.0381,0.0658
TAGTGGT,-0.813,-1.81,-1.93,-2.15,-1.27,0.784,-3.84,-0.142,0.0446,-0.0681
TTTCGTT,-0.21,-0.287,-0.118,-1.76,-0.0637,-0.932,-1.26,-0.159,-0.137,-0.178
GGGGGTC,0.0117,0.027,0.708,1.65,0.0183,2.11,0.117,-0.0725,0.0217,0.112
GTCAAAT,0.0821,0.153,0.398,0.905,0.0158,1.69,0.0789,0.0795,-0.00956,0.0462
GGGGTGT,-0.00103,0.0512,0.756,1.7,-0.00892,2.11,0.183,-0.0562,-0.0105,0.066
TAAACCA,-0.124,0.0412,-1.82,-2.7,0.00242,-0.764,-0.515,-0.187,0.0494,-0.813
CGAATAC,0.0688,-0.0554,-0.0589,-0.401,0.0272,-0.436,0.105,-0.0891,0.0313,-0.071
AAAAACG,0.0831,0.0946,-0.797,-0.0821,0.0863,-0.924,0.202,0.0852,0.0114,0.00397
CGAGAGT,0.0641,0.09,0.0558,0.0126,0.00193,-0.125,0.0277,0.13,0.0921,0.116
AATATCC,-0.0157,-0.0129,-0.0296,-0.0416,0.0405,-0.276,-0.0239,-0.108,0.0161,0.0605
CATAGCG,0.00897,-0.101,-0.688,0.378,-0.086,-0.444,0.0374,-0.0565,0.0459,-0.146
TAATTCG,0.0482,-0.00945,-1.08,-0.445,0.138,-0.954,0.155,-0.0186,0.0811,0.0567
GGTGTCT,0.0331,-0.0477,0.58,1.42,-0.0632,2.01,0.0182,-0.104,0.0595,-0.0105
ACGCGTT,0.0805,0.0937,-0.594,-0.951,0.272,-0.876,-0.0055,0.0819,0.0988,0.0207
TATTGAT,-3.47,-3.32,-1.14,-2.09,-0.0638,-0.265,-3.72,-0.139,0.0692,-0.158
ACAAGCA,0.00828,0.00954,-0.494,-1.07,-0.0101,-0.972,0.0356,-0.0433,0.0596,0.000752
